This is one part of the list.
B1: PhoQ; a variant is named by its letters at X, in order, P23837 (parent)
chain: MKKLLRLFFPLSLRVRFLLATAAVVLVLSLAYGMVALIGYSVSFDKTTFRLLRGESNLFYTLAKWENNKLHVELPENIDKQSPTMTLIYDENGQLLWAQRDVPWLMKMIQPDWLKSNGFHEIEADVNDTSLLLSGDHSIQQQLQEVREDDDDAEMTHSVAVNVYPATSRMPKLTIVVVDTIPVELKSSYMVWSWFIYVLSANLLLVIPLLWVAAWWSLRPIEALAKEVRELEEHNRELLNPATTRELTSLVRNLNRLLKSERERYDKYRTTLTDLTHSLKTPLXXLQXXLRSLRSEKMSVSDAEPVMLEQISRISQQIGYYLHRASMRGGTLLSRELHPVAPLLDNLTSALNKVYQRKGVNISLDISPEISFVGEQNDFVEVMGNVLDNACKYCLEFVEISARQTDEHLYIVVEDDGPGIPLSKREVIFDRGQRVDTLRPGQGVGLAVAREITEQYEGKIVAGESMLGGARMEVIFGRQHSAPKDE

Variants of: B1
Test: enrichment ratio after two sorts for PhoP signalling (ratio (wild type AVST 3.29)); higher = more functional
Conditions: with PhoP (E. coli)

FRRL and MKCG cannot be ordered by enrichment ratio: at most 0.25 for the first, at most 0.25 for the second.

MHTW and AAIK cannot be ordered by enrichment ratio: at most 0.25 for the first, at most 0.25 for the second.

WSIG and ICWK cannot be ordered by enrichment ratio: at most 0.25 for the first, at most 0.25 for the second.

MMEL and YTRY cannot be ordered by enrichment ratio: at most 0.25 for the first, at most 0.25 for the second.

QEPD and AWDS cannot be ordered by enrichment ratio: at most 0.25 for the first, at most 0.25 for the second.

TIMD and NNKR cannot be ordered by enrichment ratio: at most 0.25 for the first, at most 0.25 for the second.

RGIK and HGIH cannot be ordered by enrichment ratio: at most 0.25 for the first, at most 0.25 for the second.

LYAQ and YQCP cannot be ordered by enrichment ratio: at most 0.25 for the first, at most 0.25 for the second.

WPLI and RMSN cannot be ordered by enrichment ratio: at most 0.25 for the first, at most 0.25 for the second.

PIAH and SADS cannot be ordered by enrichment ratio: at most 0.25 for the first, at most 0.25 for the second.

AARR and LVYV cannot be ordered by enrichment ratio: at most 0.25 for the first, at most 0.25 for the second.

VGSH and FCWC cannot be ordered by enrichment ratio: at most 0.25 for the first, at most 0.25 for the second.

HTNY and IISM cannot be ordered by enrichment ratio: at most 0.25 for the first, at most 0.25 for the second.

YIDT and CLIW cannot be ordered by enrichment ratio: at most 0.25 for the first, at most 0.25 for the second.

Compared with TVQY, EATQ is lower in enrichment ratio: 19.2 for the first, at most 0.25 for the second.

Going from TYVQ to AQGF, the enrichment ratio rises from at most 0.25 to 9.78.

IQMP and EFNV cannot be ordered by enrichment ratio: at most 0.25 for the first, at most 0.25 for the second.

DFMT and RTCC cannot be ordered by enrichment ratio: at most 0.25 for the first, at most 0.25 for the second.

FVDH and MNFN cannot be ordered by enrichment ratio: at most 0.25 for the first, at most 0.25 for the second.

VTSG and HNVA cannot be ordered by enrichment ratio: at most 0.25 for the first, at most 0.25 for the second.

HIRF and PTQT cannot be ordered by enrichment ratio: at most 0.25 for the first, at most 0.25 for the second.

PCMW and WDDS cannot be ordered by enrichment ratio: at most 0.25 for the first, at most 0.25 for the second.

NDFE and FHGD cannot be ordered by enrichment ratio: at most 0.25 for the first, at most 0.25 for the second.

NGID and TRKP cannot be ordered by enrichment ratio: at most 0.25 for the first, at most 0.25 for the second.

DIWW and AQQC cannot be ordered by enrichment ratio: at most 0.25 for the first, at most 0.25 for the second.

LEIL and VTWV cannot be ordered by enrichment ratio: at most 0.25 for the first, at most 0.25 for the second.

RELN and NLEM cannot be ordered by enrichment ratio: at most 0.25 for the first, at most 0.25 for the second.

VPAY and GYGN cannot be ordered by enrichment ratio: at most 0.25 for the first, at most 0.25 for the second.

MCQG and MMEG cannot be ordered by enrichment ratio: at most 0.25 for the first, at most 0.25 for the second.

TYMD and RVGD cannot be ordered by enrichment ratio: at most 0.25 for the first, at most 0.25 for the second.

GMPH and KCIP cannot be ordered by enrichment ratio: at most 0.25 for the first, at most 0.25 for the second.

HARS and LFDN cannot be ordered by enrichment ratio: at most 0.25 for the first, at most 0.25 for the second.

DDFW and DVSA cannot be ordered by enrichment ratio: at most 0.25 for the first, at most 0.25 for the second.

First: SQHY
Second: ACCV
The enrichment ratio of the first is lower: at most 0.25 for the first, 8.87 for the second.

Compared with SMCM, STKL is lower in enrichment ratio: 8.16 for the first, 0.49 for the second.

IEWI and RMGV cannot be ordered by enrichment ratio: at most 0.25 for the first, at most 0.25 for the second.

QQPT and QTNV cannot be ordered by enrichment ratio: at most 0.25 for the first, at most 0.25 for the second.

IGMC and IASG cannot be ordered by enrichment ratio: at most 0.25 for the first, at most 0.25 for the second.

HVPP and SGHH cannot be ordered by enrichment ratio: at most 0.25 for the first, at most 0.25 for the second.

DKTW and NLIF cannot be ordered by enrichment ratio: at most 0.25 for the first, at most 0.25 for the second.

First: KPYS
Second: SICT
The enrichment ratio of the first is lower: at most 0.25 for the first, 7.3 for the second.

Compared with HTWE, SGCL is higher in enrichment ratio: at most 0.25 for the first, 15.6 for the second.

RISC and YPTC cannot be ordered by enrichment ratio: at most 0.25 for the first, at most 0.25 for the second.

First: HQNI
Second: TLMM
The enrichment ratio of the first is lower: at most 0.25 for the first, 0.445 for the second.

Going from MAYC to AKLI, the enrichment ratio rises from 0.655 to 4.91.

QEKL and QPID cannot be ordered by enrichment ratio: at most 0.25 for the first, at most 0.25 for the second.

PLIK and YGGY cannot be ordered by enrichment ratio: at most 0.25 for the first, at most 0.25 for the second.

SPLK and LAWK cannot be ordered by enrichment ratio: at most 0.25 for the first, at most 0.25 for the second.

GWKS and GDLG cannot be ordered by enrichment ratio: at most 0.25 for the first, at most 0.25 for the second.

FLNT and VVTT cannot be ordered by enrichment ratio: at most 0.25 for the first, at most 0.25 for the second.

EYRV and QQHL cannot be ordered by enrichment ratio: at most 0.25 for the first, at most 0.25 for the second.

QCDV and HGWN cannot be ordered by enrichment ratio: at most 0.25 for the first, at most 0.25 for the second.

SCPG and GYWK cannot be ordered by enrichment ratio: at most 0.25 for the first, at most 0.25 for the second.

EVIL and GLVP cannot be ordered by enrichment ratio: at most 0.25 for the first, at most 0.25 for the second.

First: DSKP
Second: MEHT
The enrichment ratio of the first is lower: at most 0.25 for the first, 24.2 for the second.

AMNP and QQER cannot be ordered by enrichment ratio: at most 0.25 for the first, at most 0.25 for the second.

NMKC and GEMT cannot be ordered by enrichment ratio: at most 0.25 for the first, at most 0.25 for the second.

FRGE and IYHP cannot be ordered by enrichment ratio: at most 0.25 for the first, at most 0.25 for the second.

FWWH and ITNC cannot be ordered by enrichment ratio: at most 0.25 for the first, at most 0.25 for the second.

EAFM and HCGN cannot be ordered by enrichment ratio: at most 0.25 for the first, at most 0.25 for the second.

KRMY and NQPY cannot be ordered by enrichment ratio: at most 0.25 for the first, at most 0.25 for the second.

AQHH and RAAA cannot be ordered by enrichment ratio: at most 0.25 for the first, at most 0.25 for the second.

WGMY and MQDI cannot be ordered by enrichment ratio: at most 0.25 for the first, at most 0.25 for the second.

First: EQTA
Second: SEHS
The enrichment ratio of the first is lower: at most 0.25 for the first, 1.64 for the second.

YPRC and YMTE cannot be ordered by enrichment ratio: at most 0.25 for the first, at most 0.25 for the second.

NTVG and WLWD cannot be ordered by enrichment ratio: at most 0.25 for the first, at most 0.25 for the second.

WYDE and SCHR cannot be ordered by enrichment ratio: at most 0.25 for the first, at most 0.25 for the second.

WGTN and VDHY cannot be ordered by enrichment ratio: at most 0.25 for the first, at most 0.25 for the second.

LRQS and PQHP cannot be ordered by enrichment ratio: at most 0.25 for the first, at most 0.25 for the second.

Going from LISS to TTWD, the enrichment ratio rises from at most 0.25 to 0.754.

Going from QINQ to SDLL, the enrichment ratio rises from at most 0.25 to 3.89.

AMIP and EKIY cannot be ordered by enrichment ratio: at most 0.25 for the first, at most 0.25 for the second.

QFWH and YTPQ cannot be ordered by enrichment ratio: at most 0.25 for the first, at most 0.25 for the second.

HTCD and GGPL cannot be ordered by enrichment ratio: at most 0.25 for the first, at most 0.25 for the second.

First: SSNM
Second: AKYF
The enrichment ratio of the first is higher: 9.85 for the first, at most 0.25 for the second.

ISDS and GCSP cannot be ordered by enrichment ratio: at most 0.25 for the first, at most 0.25 for the second.

GFPK gave an enrichment ratio of at most 0.25.

Source: a collection of fitness landscapes (doi:10.1126/science.1257360)
